# Results as given in paper PMC4336329 (PLoS ONE, 2015).
# The campaign covered roughly 310,000 compounds. About 2,200 (0.71%) showed an effect of 50% or more. Effects have a minus sign here. The list shows a part of the results.
# Molecular target: human ether-à-go-go-related gene (hERG) potassium channel (human, UniProt Q12809)
# Assay: primary screen, population patch clamp on CHO cells stably expressing hERG
# Sequence of human ether-à-go-go-related gene (hERG) potassium channel (Q12809 whole entry, looked up): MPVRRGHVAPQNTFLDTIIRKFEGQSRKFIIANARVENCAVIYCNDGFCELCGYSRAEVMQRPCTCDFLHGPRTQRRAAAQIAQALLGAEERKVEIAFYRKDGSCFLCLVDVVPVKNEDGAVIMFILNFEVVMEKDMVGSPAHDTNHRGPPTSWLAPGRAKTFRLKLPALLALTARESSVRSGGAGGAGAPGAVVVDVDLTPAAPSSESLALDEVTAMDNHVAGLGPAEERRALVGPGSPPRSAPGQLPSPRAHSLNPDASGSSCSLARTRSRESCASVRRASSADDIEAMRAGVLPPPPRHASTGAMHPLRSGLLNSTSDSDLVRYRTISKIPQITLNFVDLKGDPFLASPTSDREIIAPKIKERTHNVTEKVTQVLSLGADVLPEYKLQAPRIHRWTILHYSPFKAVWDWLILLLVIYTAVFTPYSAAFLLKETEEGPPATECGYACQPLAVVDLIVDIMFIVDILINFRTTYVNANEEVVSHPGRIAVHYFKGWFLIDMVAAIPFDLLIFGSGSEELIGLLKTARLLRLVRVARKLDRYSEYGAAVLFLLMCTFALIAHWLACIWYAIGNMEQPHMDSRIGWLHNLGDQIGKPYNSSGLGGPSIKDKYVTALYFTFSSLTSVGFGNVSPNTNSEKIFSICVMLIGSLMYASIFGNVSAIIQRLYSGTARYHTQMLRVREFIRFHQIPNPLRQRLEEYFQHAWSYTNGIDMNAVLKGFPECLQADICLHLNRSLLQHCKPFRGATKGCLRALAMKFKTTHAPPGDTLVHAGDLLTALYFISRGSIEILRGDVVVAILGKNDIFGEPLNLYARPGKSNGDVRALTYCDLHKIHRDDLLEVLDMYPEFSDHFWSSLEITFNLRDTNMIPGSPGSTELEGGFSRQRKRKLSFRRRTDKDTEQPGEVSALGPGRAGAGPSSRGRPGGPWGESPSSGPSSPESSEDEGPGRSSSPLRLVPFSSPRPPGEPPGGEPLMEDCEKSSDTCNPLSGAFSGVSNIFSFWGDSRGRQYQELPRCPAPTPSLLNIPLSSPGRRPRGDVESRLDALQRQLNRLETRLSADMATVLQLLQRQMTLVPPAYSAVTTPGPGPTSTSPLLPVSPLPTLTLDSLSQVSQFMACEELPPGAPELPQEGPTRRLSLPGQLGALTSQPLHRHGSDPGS
row,SMILES,"hERG current change (%, negative = inhibition) at 1uM"
1,COC(=O)CCC(=O)OC1(C)C(=O)C2=CN(Cc3ccccc3)C(c3ccc(OC)cc3)=CC2=C(Br)C1=O (centres unmarked),17.3%
2,Cc1ccccc1NC(=O)Cc1nc(COC(=O)Cc2ccccc2)cs1,0.531%
3,CC1CCCCC1NC(=O)CCNS(=O)(=O)c1ccc(Cl)cc1 (centres unmarked),7.29%
4,CCCCc1nc2cc(C(=O)NC(C)c3cnn(C)c3)ccc2o1 (centres unmarked),10.8%
5,COc1ccc(S(=O)(=O)NCC2CCCO2)cc1NC(=O)c1ccccc1 (centres unmarked),11.7%
6,CC(=O)OCCCNc1cc(Sc2ccc(Cl)cc2)c2nonc2c1[N+](=O)[O-],8.63%
7,CCn1c(SCCOc2ccc(Cl)cc2)nnc1-c1cccs1,-1.16%
8,Nc1nc(Br)c2c(F)cccc2c1-c1ccc(F)cc1,-8.87%
9,COc1cc(OC)cc(C(=O)N(CN2CCCC2=O)c2ccccc2OC)c1,-1.2%
10,C/C(=N\NC(=O)CCC(=O)Nc1ccc(C)c(C)c1)c1cccs1,12.7%
11,CCOC(=O)c1cnc2c(Cl)cc(Cl)cc2c1NCCCN1CCOCC1,6.43%
12,OCCC1CN(Cc2nc3ccccc3s2)CCN1C1CCCCC1 (centres unmarked),-19.6%
13,CC(=O)NC(CC(=O)OCc1ccc([N+](=O)[O-])cc1)c1ccccc1 (centres unmarked),-27%
14,COc1cc(/C=N/NC(=O)c2cccc(N3CCCC3=O)c2)ccc1O,22%
15,Cc1ccc(N(C(=O)Cn2nnc(-c3ccccc3)n2)C(C(=O)NC2CCCCC2)c2ccccn2)cc1C (centres unmarked),9.25%
16,COc1ccc(NC(=O)C(OC(=O)c2ccc([N+](=O)[O-])o2)c2ccccc2)cc1Cl (centres unmarked),-4.89%
17,CCCCNC(=O)/C(C#N)=C/c1cccnc1,4.13%
18,O=C(COC(=O)c1ccc(-c2ccccc2)cc1)Nc1ccccc1-c1ccccc1,10.7%
19,CCCCSc1[nH]c(=O)c(C(=O)OCC)cc1C#N,4.97%
20,NC(=O)c1ccc[n+](CC(=O)c2cccc([N+](=O)[O-])c2)c1.[Br-],12.1%
21,CC(=O)c1cccc(NC(=O)c2ccc(CN3CCc4ccccc4C3)cc2)c1,6.79%
22,CCn1c(=O)cc(SCC(=O)NCc2ccc3c(c2)OCO3)c2ccccc21,13.5%
23,COC(=O)c1ccccc1NC(=O)CSc1nc(NC(=O)c2ccccc2)c2c(C)c(C)oc2n1,8.92%

row,SMILES,"hERG current change (%, negative = inhibition) at 1uM"
1,CCN(CC)c1ccc(/C=N/NC(=O)c2cc(C)nc3ccccc23)cc1,11.2%
2,CC1CN(c2oc(Cc3cccc4ccccc34)nc2C#N)CC(C)O1 (centres unmarked),10.3%
3,Cc1ccc(CNc2ccc(S(=O)(=O)N3CCOCC3)cc2[N+](=O)[O-])cc1,-6.45%
4,CC1CCCCC1NC(=O)c1cccc(S(=O)(=O)N2CCN(C)CC2)c1 (centres unmarked),1.2%
5,Cn1c(SCc2ccccc2C#N)nc2ccccc2c1=O,12%
6,Cc1noc(C)c1CSCC(=O)N(CCC(C)C)c1c(N)n(Cc2ccccc2)c(=O)[nH]c1=O,-1.82%
7,CCCN(CCC)CCCNC(=O)c1cn(C)c2ccc(S(=O)(=O)N(C)C3CCCCC3)cc2c1=O,-34.7%
8,O=C(Nc1ccccc1)Nc1ccno1,15.7%
9,C1CCc2nnc(C3CC3)n2CC1,4.75%
10,COc1ccc(CCNC(=O)CNCC(c2ccccc2)N(C)C)cc1OC.O=C(O)C(=O)O (centres unmarked),18.7%
11,O=C(Nc1ccc(C(=O)N2CCOCC2)cc1)Nc1cccc(Cl)c1,4.28%
12,CCOC(=O)c1cc2sccc2n1CC(=O)OC,9.17%
13,CCCCNC(=O)NS(=O)(=O)c1ccc(NC(=O)CCC(=O)c2cccs2)cc1,18.4%
14,CC1CN(C(=O)CCC(=O)NCCc2ccccc2)c2ccccc2O1 (centres unmarked),8.02%
15,O=C(O)c1ccc(-n2nnc3ccccc32)c([N+](=O)[O-])c1,20.2%
16,CCc1cccc(C)c1NC(=O)c1ccc(CN2CCc3ccccc3C2)cc1,12.6%
17,Cc1ccc(OCC(O)CNC(=O)c2ccccc2C(=O)O)cc1 (centres unmarked),11.9%
18,O=C(CNC(=O)Cc1ccccc1)NCC(=O)OCC(=O)c1ccc(Cl)cc1,10.8%
19,Cc1cc(Nc2ccc3c(c2)OCCO3)n2nc(C)nc2n1,0.891%
20,CC(C)Oc1ccc(N2CC(C(=O)Nc3ccccc3F)CC2=O)cc1 (centres unmarked),8.34%
21,N/C(=N\OC(=O)c1cccc(F)c1)c1ccccc1,8.36%
22,Cn1c(C(=O)NCC2CCCO2)cc2oc3ccccc3c21 (centres unmarked),7.45%
23,Cc1cc(C)c(OCCn2ccnc2)c(C)c1,20.3%

row,SMILES,"hERG current change (%, negative = inhibition) at 1uM"
1,CC(=O)c1cccc(NC(=O)CCNC(=O)c2ccccc2Cl)c1,10.5%
2,Cc1cccc(C)c1OCCOC(=O)c1cccc(S(=O)(=O)N2CCOCC2)c1,3.47%
3,O=C(O)CN1C(=O)COc2cc(S(=O)(=O)N3CCCC3)ccc21,8.13%
4,CCOC(=O)c1ccc(COC(=O)c2cc3ccccc3oc2=O)o1,6.51%
5,CCOC(=O)N1CCN(c2c(Nc3ccc4c(c3)OCCO4)c(=O)c2=O)CC1,15.4%
6,Cc1ccnc(SCC(=O)O)n1,9.66%
7,NS(=O)(=O)c1ccc(CCNC(=O)CSc2nc3ccsc3c(=O)n2CC2CCC(C(=O)O)CC2)cc1 (centres unmarked),18.5%
8,O=C(O)c1cc(S(=O)(=O)NC(Cc2c[nH]c3ccccc23)C(=O)O)ccc1Cl (centres unmarked),11.9%
9,COC(=O)C1[C@H]2C(=O)N(Cc3cccs3)C[C@]23C=C[C@H]1O3 (some centres unmarked),-4.46%
10,CC(=O)Nc1ccc(C(=O)CSc2cc(C)c3cccc(C)c3n2)cc1,14.7%
11,Cc1ccc2c(CC(=O)OCc3csc(C)n3)coc2c1,17.2%
12,O=C(c1cnccn1)N1CCc2ccccc21,15.7%
13,Cl.Nc1ccc2nc(CCCO)[nH]c2c1,9.88%
14,COCCN1C(=O)C(=O)/C(=C(/O)c2cccc(OC)c2)C1c1ccc(C)o1 (centres unmarked),-3.8%
15,CS(=O)(=O)N1CCC(C(=O)NCc2ccco2)CC1,11.3%
16,CCSc1[nH]c2ccccc2[nH+]1.[Cl-],10.8%
17,Cc1[nH]n2c(=O)c(C#N)c(-c3ccccc3)nc2c1-c1ccccc1,12.1%
18,COc1cccc(CNC(=O)CN2CCC(c3nc4ccc(C)cc4[nH]3)CC2)c1,-17.8%
19,CC1SC(C)C(=O)N(CC(=O)Nc2ccc([N+](=O)[O-])cc2)C1=O (centres unmarked),5.92%
20,N/C(=N\N=C\c1cccs1)SC1CC(=O)N(c2cccc([N+](=O)[O-])c2)C1=O (centres unmarked),9.86%
21,Nc1oc2ccccc2c(=O)c1C=O,5.34%
22,Cc1ccc(O)c(Nc2ncnc3ccccc23)c1.Cl,10.7%
23,CN(C)C(CNC(=O)c1ccc(Br)cc1)c1ccco1 (centres unmarked),17.7%

row,SMILES,"hERG current change (%, negative = inhibition) at 1uM"
1,O=C(NCCCN1CCOCC1)c1cc2ccccc2o1,10.8%
2,O=C(CN(C(=O)CCC(=O)Nc1nccs1)c1cccc(F)c1)NCc1ccccc1,11%
3,CCCC(=O)C1=C(O)C(C(=O)OC)C(C)(C)CC1=Nc1ccncc1 (centres unmarked),2.98%
4,CCCCCCOc1ccc(C(=O)NCCCn2ccnc2)cc1,2.64%
5,O=C(NNC(=O)c1cccs1)c1ccc2ccccc2c1,3.54%
6,COc1ccc(OCC(=O)Nc2ccc(S(=O)(=O)Nc3nc(C)cc(C)n3)cc2)cc1,8.75%
7,O=C(CC1C(=O)N(Cc2ccccc2)C(=S)N1CCN1CCOCC1)Nc1ccc(F)cc1 (centres unmarked),13.3%
8,C=CC[n+]1cccc(-c2cc3ccc(C)cc3[nH]2)c1.[Br-],2.95%
9,CC(=O)Nc1ccc(/C=C/c2ccc3c([N+](=O)[O-])cccc3n2)cc1,11.8%
10,COc1ccc(-c2nc3oc4cc(OC)ccc4c(=O)c3c(=O)n2Cc2ccco2)cc1,-2.23%
11,O=C(NCc1ccccc1)C1CCCN1S(=O)(=O)c1cccc2cccnc12 (centres unmarked),10.5%
12,CCn1c(NN)nc2sc3c(c2c1=O)CCC3,12%
13,COc1ccc(NC(=O)Nc2ccc(C(=O)N3CCOCC3)cc2)c(OC)c1,8.31%
14,O=C(c1cc(-c2cccs2)nc2ccccc12)N1CCN(c2ccccc2O)CC1,10.6%
15,CC1=C(C(=O)NC2CCCC(C)C2C)C2(CCCCC2)OC1=O (centres unmarked),2.66%
16,COc1ccccc1-c1sc2ccccc2c1-c1ccccc1OC,12%
17,Cc1noc(C)c1S(=O)(=O)N1CCCC1C(=O)NC(C)(C)C (centres unmarked),0.145%
18,CCOC(=O)CSc1nc(COc2ccccc2)nc2ccccc12,9.12%
19,O=C(COC(=O)c1ccccc1NS(=O)(=O)c1ccc(Cl)cc1)NCc1ccccc1,10.5%
20,O=c1oc2ccc(Cl)cc2cc1-c1ccccc1,16.1%
